This list was built around the results that the source calls inconclusive (neither active nor inactive); the mix of calls is not that of the screen. For some of these results: A potency beside an inconclusive call is a rough fit, not a confirmed value. Active and inactive are the calls of the source. Unless noted, the call rests on the fitted dose curve; in most records, active means well fitted curve in the direction sought with a large enough effect; inconclusive means small, poorly fitted or top-dose-only effect, or another doubt; inactive means no such curve, though single readings can be large; an effect the other way counts as inactive or inconclusive.
Experiments:
[1] = P-glycoprotein substrates identified in KB-3-1 adenocarcinoma cell line, qHTS therapeutic library screen (AID 1346986); further: nearly all actives have a fitted effect of over 60% in size
Outline: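 Cells seeded 500/well in DMEM/10% FCS; compounds pinned in dose-response; 72 h incubation; CellTiter-Glo added, 5 min, luminescence. KB-8-5-11 run ±tariquidar to test reversal of P-gp resistance.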

[2] = target: Cytochrome P450 2C9 (Homo sapiens) (UniProt P11712); test: Cytochrome P450 family 2 subfamily C member 9 (CYP2C9) small molecule antagonists: luciferase biochemical (cell-free) qHTS assay (AID 1645842; active means well fitted curve in the direction sought with a large enough effect in the repeat runs; inconclusive means weak or mixed curves; inactive means no such curve, though single readings can be large; an effect the other way counts as inactive or inconclusive; further: potency means the concentration at half of the fitted maximal effect; nearly all actives have a fitted effect of over 55% in size)
Outline: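 Luminescence, after 20 min with luciferin detection reagent, reflected CYP2C9 turnover during a 1 h NADPH-driven reaction at 37C. Enzyme-substrate mix contained 0.4% bovine serum albumin and was preincubated with compound 10 min at room temperature.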

[3] = Primary qHTS for inhibitors of nuclear receptor binding SET domain protein 2 (NSD2) in an isogenic RCH-ACV NSD2 p.E1099K mutant (9B) (AID 1645876); further: nearly all actives have a fitted effect of over 70% in size; further: potency means the concentration at half of the fitted maximal effect
[4] = Primary qHTS for inhibitors of nuclear receptor binding SET domain protein 2 (NSD2) in an RCH-ACV wild type WT cells (2C) (AID 1645877); conditions: activity change, negative = cell killing: at 44.9 µM (top of the series) unless noted; further: on the % scale 0 is the no-effect control and ±100 the full control effect; nearly all actives have a fitted effect of over 70% in size
KB-3-1 = test: Cytotoxic Profiling of Annotated Libraries Using Quantitative High-Throughput Screening (AID 1296008); conditions: Five cell lines viability, CellTiter-Glo ATP luminescence, 48-72 h; max response: active compounds read low; further: nearly all actives have a fitted effect of over 60% in size; further: potency means the concentration at half of the fitted maximal effect; on max response: on the % scale 0 is the no-effect control and ±100 the full control effect
Outline: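 Cytotoxicity was measured as CellTiter-Glo ATP luminescence, read after 10 min at room temperature. Compound treatment of the cells lasted 48 or 72 hr at 37 degrees Celsius in a qHTS format.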

Hek293T = test: Primary qHTS to identify gynecologic anti-cancer compounds using libraries of approved drugs and bioactive compounds (AID 1345084); conditions: Gynecologic cancer cell panel viability, ATPlite luminescence, 48 h, control line for the selectivity index; activity change, negative = cytotoxicity: at 57.5 µM (top of the series) unless noted; further: nearly all actives have a fitted effect of over 55% in size; further: potency means the concentration at half of the fitted maximal effect; on activity change, negative = cytotoxicity: on the % scale 0 is the no-effect control and ±100 the full control effect
Outline: (§1)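 Cell viability after 48 h drug treatment, ATPlite luminescence readout; five doses.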

Tov112D = test: as above; conditions: Gynecologic cancer cell panel viability, ATPlite luminescence, 48 h; series mostly up to 57.5 µM
Outline: as §1

[5] = system: Zika virus NS2B-NS3 protease (linked construct); test: Primary screen NINDS Rhodamine qHTS for Zika virus inhibitors (AID 1347160); conditions: activity change, negative = inhibition: at 57.1 µM (top of the series) unless noted; further: nearly all actives have a fitted effect of over 55% in size; further: potency means the concentration at half of the fitted maximal effect
Outline: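 Purified linked NS2B-NS3 protease (NS2B hydrophilic domain joined to NS3 protease by flexible linker), 25 nM in 10 mM Tris-HCl pH 8.0, 0.01% Tween 20. Compounds titrated, 15 min preincubation at room temperature; 1.5 microM Rhodamine110 substrate, FITC fluorescence change over 15 min.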

[6] = target: Cytochrome P450 2D6 (Homo sapiens) (UniProt P10635); test: Cytochrome P450 family 2 subfamily D member 6 (CYP2D6) small molecule antagonists: luciferase biochemical (cell-free) qHTS assay (AID 1645840; active means well fitted curve in the direction sought with a large enough effect in the repeat runs; inconclusive means weak or mixed curves; inactive means no such curve, though single readings can be large; an effect the other way counts as inactive or inconclusive)
Outline: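 P450-Glo luminescent screen: recombinant CYP2D6 enzyme–proluciferin substrate mix preincubated with compound 10 min at room temperature, then NADPH regeneration added for 1 h at room temperature. Detection reagent added for 20 min; luciferin light read as relative luminescence units.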

[7] = target: Glutathione peroxidase 1 (Homo sapiens) (UniProt P07203); test: Primary qHTS Assay for Inhibitors of Recombinant Selenoprotein Glutathione Peroxidase 1 (GPX1) (AID 1845191); conditions: activity, negative = inhibition: at 48.8 µM (top of the series); further: potency means the concentration at half of the fitted maximal effect; nearly all actives have a fitted effect of over 65% in size
Outline: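 10 nM GPX1 + cpd, 30 min RT; start w/ 1 mM GSH, 0.5 mM cumene hydroperoxide, 0.5 mM NADPH, 100 nM GR, 0.01% BSA; buffer 50 mM Tris-HCl pH 7.5, 2 mM EDTA, 150 mM NaCl; Fl 340/450, 0 & 15 min.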

OV90 = test: Primary qHTS to identify gynecologic anti-cancer compounds using libraries of approved drugs and bioactive compounds (AID 1345084); conditions: Gynecologic cancer cell panel viability, ATPlite luminescence, 48 h; series mostly up to 57.5 µM; further: nearly all actives have a fitted effect of over 55% in size; further: potency means the concentration at half of the fitted maximal effect; on activity change, negative = cytotoxicity: on the % scale 0 is the no-effect control and ±100 the full control effect
Outline: as §1

SKOV3 = test: as above; conditions: Gynecologic cancer cell panel viability, ATPlite luminescence, 48 h; series mostly up to 57.5 µM
Outline: as §1

Tov-21-G = test: as above; conditions: Gynecologic cancer cell panel viability, ATPlite luminescence, 48 h; activity change, negative = cytotoxicity: at 57.5 µM (top of the series) unless noted
Outline: as §1

[8] = P-glycoprotein substrates identified in KB-8-5-11 adenocarcinoma cell line, qHTS therapeutic library screen (AID 1346987); further: potency means the concentration at half of the fitted maximal effect; nearly all actives have a fitted effect of over 65% in size
Outline: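 Steps: plate 500 KB-8-5-11 cells/well in DMEM + 10% FCS (colchicine removed); pin compounds in dose-response; incubate 72 h, 37 degree C, 5% CO2; add CellTiter-Glo, 5 min; read luminescence.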

[9] = system: Zika virus NS2B-NS3 protease (unlinked complex); test: Primary screen GU Rhodamine qHTS for Zika virus inhibitors: Unlinked NS2B-NS3 protease assay (AID 1347159); further: potency means the concentration at half of the fitted maximal effect; nearly all actives have a fitted effect of over 60% in size
Outline: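 Noncovalent NS2B hydrophilic domain–NS3 protease domain complex (25 nM) preincubated 15 min at room temperature with compounds (up to 114 microM) in 10 mM Tris-HCl pH 8.0, 0.01% Tween 20; 1.5 microM Rhodamine110 substrate added, fluorescence change over 15 min fitted to Hill equation.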

[10] = Primary redox qHTS assay for identification of artifact compounds. (AID 1845223); conditions: Amplex Red/HRP redox cycling with DTT, fluorescence; redox activity (% of DA3003): at 53.8 µM (top of the series); further: potency means the concentration at half of the fitted maximal effect
Outline: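 Amplex Red (25 uM) and HRP (250 mU/mL) in HBSS, with compounds for 15 min, then 250 uM DTT for 30 min, room temperature, dark. Fluorescence 525/598 nm read; normalized to DMSO and 10 uM DA3003; Hill fit.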

JEG-3 = test: Primary qHTS to identify gynecologic anti-cancer compounds using libraries of approved drugs and bioactive compounds (AID 1345084); conditions: Gynecologic cancer cell panel viability, ATPlite luminescence, 48 h; series mostly up to 57.5 µM; further: nearly all actives have a fitted effect of over 55% in size; further: potency means the concentration at half of the fitted maximal effect; on activity change, negative = cytotoxicity: on the % scale 0 is the no-effect control and ±100 the full control effect
Outline: as §1

[11] = qHTS of pediatric cancer cell lines to identify multiple opportunities for drug repurposing: Primary screen for A673 cells (AID 1347092); conditions: A673 Ewing sarcoma viability, CellTiter-Glo ATP luminescence, 48 h; activity change, negative = cytotoxic: at 46 µM (top of the series); further: on the % scale 0 is the no-effect control and ±100 the full control effect; nearly all actives have a fitted effect of over 45% in size
Outline: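 A673 cells (500-1,000 cells/well) were treated 48 hours at 37 degrees C with compounds at 11-point (0.78 nM to 46 µM) or 8-point (0.59 nM to 46 µM) dilutions. Viability read by CellTiter-Glo luminescence; concentration-response curves fitted.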

[12] = qHTS of pediatric cancer cell lines to identify multiple opportunities for drug repurposing: Primary screen for SK-N-MC cells (AID 1347093); conditions: SK-N-MC viability, CellTiter-Glo luminescence, 48 h; activity change, negative = cytotoxic: at 46 µM (top of the series);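 further: plate controls were DMSO neutral control for no effect and bortezomib for full effect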
Outline: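 Metabolically active cells were quantified by ATP-dependent luminescence (CellTiter-Glo, 15 min at room temperature) following 48 h treatment. Cells had been plated at 500-1,000 per well and settled for 5 h beforehand.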

[13] = qHTS of pediatric cancer cell lines to identify multiple opportunities for drug repurposing: Primary screen for NB-EBc1 cells (AID 1347095);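 further: plate controls were DMSO neutral control for no effect and bortezomib for full effect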
Outline: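 Cells plated at 500-1,000/well in growth medium, compounds added after 5 h. MIPE tested at 11 points (from 0.78 nM), NPC at 8 points (from 0.59 nM). CellTiter-Glo luminescence after 48 h; concentration-response curves from primary screen.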

[14] = Primary qHTS for small molecule stabilizers of the endoplasmic reticulum resident proteome: Secreted ER Calcium Modulated Protein (SERCaMP) assay (AID 1508630); conditions: SH-SY5Y GLuc-SERCaMP (Gaussia luciferase released on ER calcium loss) secretion, thapsigargin, luminescence; activity change, negative = inhibition: at 38.4 µM (top of the series) unless noted; further: potency means the concentration at half of the fitted maximal effect
Outline: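 GLuc-SERCaMP-expressing SH-SY5Y cells, pretreated 16 h with compound, are challenged with thapsigargin to empty ER calcium stores; after 4 h, coelenterazine is added directly to the medium and luminescence is imaged.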

[15] = Drug repurposing screens with cells derived from glioblastoma tumor samples (AID 1345199); conditions: GBM patient neurospheres viability, ATP luminescence, 48 h; Potency: tumour line A unless noted; activity, negative = cell killing: at 46 µM (top of the series), tumour line A unless noted; further: on the % scale 0 is the no-effect control and ±100 the full control effect; nearly all actives have a fitted effect of over 40% in size
Outline: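 Four patient lines of CD133+ GBM neurospheres were screened at several concentrations; hits were retested in those lines plus three slower-growing GBM lines, using 48-hour treatment and ATP-based viability.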
Tags describe the fitted curve by direction and shape.

Chain of UniProt P10635 (P10635 whole entry, looked up): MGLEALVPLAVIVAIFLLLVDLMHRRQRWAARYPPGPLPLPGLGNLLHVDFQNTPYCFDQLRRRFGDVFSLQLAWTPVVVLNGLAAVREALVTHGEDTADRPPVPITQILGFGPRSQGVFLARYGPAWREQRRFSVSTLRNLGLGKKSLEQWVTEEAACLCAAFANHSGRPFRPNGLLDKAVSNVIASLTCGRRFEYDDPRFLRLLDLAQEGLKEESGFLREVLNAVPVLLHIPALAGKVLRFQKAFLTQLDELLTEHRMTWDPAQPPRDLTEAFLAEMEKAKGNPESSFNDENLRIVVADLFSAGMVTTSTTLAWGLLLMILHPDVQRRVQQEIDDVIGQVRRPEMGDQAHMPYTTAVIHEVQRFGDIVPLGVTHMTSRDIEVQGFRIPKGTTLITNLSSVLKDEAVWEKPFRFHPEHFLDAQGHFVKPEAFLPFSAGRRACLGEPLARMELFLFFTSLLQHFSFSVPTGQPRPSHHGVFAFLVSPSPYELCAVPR
Chain of UniProt P07203 (P07203 whole entry, looked up): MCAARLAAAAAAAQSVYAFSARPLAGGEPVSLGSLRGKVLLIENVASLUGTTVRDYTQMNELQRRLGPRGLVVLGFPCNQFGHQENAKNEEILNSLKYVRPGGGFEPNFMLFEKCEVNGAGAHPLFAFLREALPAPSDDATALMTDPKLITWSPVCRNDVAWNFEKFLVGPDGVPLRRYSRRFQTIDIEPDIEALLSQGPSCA
Chain of UniProt P11712 (P11712 whole entry, looked up): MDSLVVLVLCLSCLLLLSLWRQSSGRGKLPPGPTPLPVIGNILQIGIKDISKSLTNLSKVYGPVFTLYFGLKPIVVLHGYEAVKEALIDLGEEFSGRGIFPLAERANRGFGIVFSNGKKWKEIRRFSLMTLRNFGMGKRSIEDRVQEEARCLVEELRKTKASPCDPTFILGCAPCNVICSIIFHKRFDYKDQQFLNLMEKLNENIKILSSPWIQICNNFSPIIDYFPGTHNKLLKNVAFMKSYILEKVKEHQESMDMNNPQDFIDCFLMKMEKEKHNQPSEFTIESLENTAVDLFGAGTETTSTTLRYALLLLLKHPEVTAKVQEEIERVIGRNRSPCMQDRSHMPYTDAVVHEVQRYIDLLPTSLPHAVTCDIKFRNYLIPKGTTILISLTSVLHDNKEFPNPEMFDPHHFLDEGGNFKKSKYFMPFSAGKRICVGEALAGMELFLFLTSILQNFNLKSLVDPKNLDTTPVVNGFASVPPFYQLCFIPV

O=C(O)[C@H]1CCCC[C@H]1C(=O)N1CCc2ccccc2[C@H]1CN1C(=O)c2ccccc2C1=O
inactive: Potency [1] | Potency [4] | outcome (KB-3-1) | Potency (Hek293T) | Potency (Tov112D)
inconclusive: Potency [2] 19 µM [inhibitor, partial curve] | Potency [3] 2.58 µM [inhibitor, full curve]

COc1ccc(CNC(=O)c2sc3nc(C)cc(C)c3c2N)cc1
inactive: Potency [5] | max response (KB-3-1) -4.88% | Potency (OV90) | Potency (Tov-21-G)
inconclusive: Potency [6] 21.3 µM [inhibitor, single point] | Potency [3] 25.8 µM [inhibitor, single point] | Potency [7] 32.1 µM [inhibitor, partial curve, poor fit] | Potency (SKOV3) 39.8 µM [rising, single point]

CCOC(=O)c1ccc(OCCC2CCN(c3ccc(C)nn3)CC2)cc1
inconclusive: Potency [8] 20.6 µM [inhibitor, partial curve, poor fit] | Potency [9] 14.1 µM [inhibitor, full curve] | Potency [6] 26.8 µM [inhibitor, single point] | Potency (KB-3-1) 29.1 µM [inhibitor, single point]
inactive: Potency [3] | Potency (SKOV3) | Potency (Tov-21-G)

CC(C)=C/C=C\[C@H](C)[C@H]1CC[C@]2(C)C[C@@H]3C(C)=CC(=O)C3/C(CO)=C\C[C@@H]12 (stereo not given in full)
inconclusive: Potency [9] 11.2 µM [inhibitor, full curve] | Potency [3] 11.3 µM [inhibitor, single point]
inactive: outcome (KB-3-1) | Potency (SKOV3) | Potency (Tov112D)

C=C1CCC2C(C)(C)CC(O)CC2(C)C1CCC(C)CC(=O)O (stereo not given)
active: Potency [9] 11.2 µM
inconclusive: Potency [5] 10 µM [inhibitor, partial curve, poor fit] | Potency [10] 18.5 µM [activator, single point]
inactive: max response (KB-3-1) -5.43% | Potency (JEG-3) | Potency (OV90)

C[C@@H]1CCN(C(=O)[C@H](CCCN=C(N)N)NS(=O)(=O)c2cccc3c2NC[C@H](C)C3)[C@@H](C(=O)O)C1
inactive: Potency [11] | Potency [12] | Potency [13] | max response (KB-3-1) 1.81% | Potency (OV90) | Potency [15]
inconclusive: Potency [14] 31.6 µM [inhibitor, partial curve, poor fit]
